Among all 45,000 compounds or so, about 65 (0.1%) were called active. Calls come from the whole dose curve; as a rule, active = well fitted activation curve with a large enough effect; inconclusive = small, poorly fitted or top-dose-only effect; inactive = no such curve, though single readings can be large or run the other way. This is one part of the list.

UniProt P54803, sequence (P54803 whole entry, looked up): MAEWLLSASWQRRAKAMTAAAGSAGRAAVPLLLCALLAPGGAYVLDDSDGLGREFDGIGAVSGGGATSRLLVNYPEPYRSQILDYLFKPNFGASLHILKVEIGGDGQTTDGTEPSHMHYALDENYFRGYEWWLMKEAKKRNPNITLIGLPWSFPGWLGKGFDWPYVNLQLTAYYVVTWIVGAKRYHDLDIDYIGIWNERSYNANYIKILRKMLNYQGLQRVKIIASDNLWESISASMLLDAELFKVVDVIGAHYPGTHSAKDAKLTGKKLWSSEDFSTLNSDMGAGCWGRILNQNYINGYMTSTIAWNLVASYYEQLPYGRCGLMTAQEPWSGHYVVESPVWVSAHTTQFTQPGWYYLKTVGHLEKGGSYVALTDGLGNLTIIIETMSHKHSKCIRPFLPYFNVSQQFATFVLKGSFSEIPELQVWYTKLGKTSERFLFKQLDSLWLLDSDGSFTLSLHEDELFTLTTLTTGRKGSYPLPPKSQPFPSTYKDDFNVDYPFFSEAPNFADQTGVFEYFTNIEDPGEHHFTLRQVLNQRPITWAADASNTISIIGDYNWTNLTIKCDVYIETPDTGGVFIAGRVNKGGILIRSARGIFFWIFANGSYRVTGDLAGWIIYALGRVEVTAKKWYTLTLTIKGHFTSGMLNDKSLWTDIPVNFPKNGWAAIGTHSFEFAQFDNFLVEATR

In this experiment the target is Galactocerebrosidase (Homo sapiens) (UniProt P54803). Put plainly: A Novel Cell-Based Assay to Identify Small Molecules for B -Galactocerebrosidase. Note: 0% is about no effect; nearly all actives have a fitted effect of over 65% in size. As to conditions: 145M-Twi-hGALC-G270D cells (Twitcher mouse brain line with human GALC G270D), HMU-beta-Gal fluorescence, 48 h; series mostly up to 57.5 µM; activation: at the top concentration. In outline:
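Live 145M-Twi cells (Twitcher mouse brain-derived, GALC-null) stably expressing human GALC-G270D, with a wild-type GALC line, were compound-treated. Residual GALC activity was then read as fluorescence from 0.1 mM final HMU-β-gal at pH 5.2; higher signal means activation.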
With `CCc1ccccc1NC(=O)COC(=O)c1cn(CC)c2nc(C)ccc2c1=O`, the “activation” value was inactive: -12.3%.
The result for `CCCCOC(=O)c1ccc(Nc2nc3ccc(C)cc3n3cnnc23)cc1` reads inactive: 21.9%; that for `CCCOc1ccc(Cn2c(=O)sc3ccccc32)cc1`, inactive: -15.4%.
The result for `O=C(CSCc1ccc(F)cc1)N1CCc2c([nH]c3ccccc23)C1c1ccccc1` (stereo unspecified) reads inactive: 0.816%; that for `CCCCCNc1nc2c(-c3ccccc3)nnn2c2ccccc12`, inactive: -11%.
The result for `CCc1ccc(OC(=O)c2sc3ncn(Cc4cccc(F)c4)c(=O)c3c2C)cc1` reads inactive: 5.87%; that for `Cc1ccc(-c2nc(SCC(=O)Nc3cc(C)on3)c3c(=O)n(C)c(=O)n(C)c3n2)cc1`, inactive: -16.6%.
With `O=C(CC(=O)Nc1ccccc1F)Nc1ccc2nc3n(c(=O)c2c1)CCCCC3`, the “activation” value was inactive: -8.55%.
The figure for `Cc1cccc(N2CCN(C(=O)c3ccc4c(c3)N(Cc3cccc(Cl)c3)C(=O)c3ccccc3S4=O)CC2)c1C` (stereo unspecified) is inactive: -11.3%; for `COc1ccccc1NC(=O)c1c(NC(=O)c2cccs2)sc2c1CCC(C(C)(C)C)C2` (stereo unspecified) it is inactive: -4.83%; for `NS(=O)(=O)c1ccc(CCNC(=O)CCn2c(=O)c3cccn3c3cccnc32)cc1` it is inactive: -4.68%.
On to `COc1ccc(Cl)cc1NC(=O)c1cc2nc(-c3ccc(C)cc3)cc(C(F)(F)F)n2n1`, for which the “activation” value is inactive: -15.4%.
The result for `Cc1cc(Br)ccc1NC(=O)C(NS(=O)(=O)c1cccs1)c1ccccc1` (stereo unspecified) reads inactive: -6.91%; that for `COc1cc2nc(N3CCN(C(=O)C4COc5ccccc5O4)CC3)nc(N)c2cc1OC` (stereo unspecified), inactive: -10.6%.
The result for `Cc1cc(F)ccc1NC(=O)CN1C(=O)CCc2cc(S(=O)(=O)N3CCOCC3)ccc21` reads inactive: -7.83%; that for `Fc1ccc(Nc2nc(-c3ccc(F)cc3)c3c(n2)-c2ccccc2OC3)cc1`, inactive: -7.76%.
Take `O=C(c1cnc(N2CCCCC2)c2ccccc12)N1CCN(c2ccc(F)cc2)CC1`: the “activation” value is inactive: 3.92%.
The result for `Cc1c(NC(=O)c2ccc(-c3ccc(F)cc3)o2)cccc1-c1nc2ncccc2o1` reads inactive: -7.07%.
For `COc1cccc(C(=O)Nc2ccc3nc(SCC(=O)N4CCc5ccccc54)sc3c2)c1`, the “activation” value was inactive: -6.3%.
The result for `Cc1sc2c(c1C)c(=O)n(-c1ccc(Cl)cc1)c(=O)n2CC(=O)c1ccccc1` reads inactive: 2.34%; that for `CSc1nc(C)cc(Nc2cccc(C(=O)O)c2)n1`, inactive: -10.8%.
On to `COc1cc(NC(=O)CCCN2C(=O)CCn3nc(-c4cn(C)c5ccccc45)cc32)cc(OC)c1`, for which the “activation” value was inactive: -6.09%.
The figure for `CCOC(=O)C(C)Nc1ncnc2onc(C)c12` (stereo unspecified) is inactive: -1.02%; for `Cc1ccc(-c2nc3scc(CCNS(=O)(=O)c4c(C)noc4C)n3n2)cc1` it is inactive: -19%.
As for `COc1cccc(CNC(=O)c2ccc3c(c2)sc2nc(-c4ccccc4)cn23)c1OC`, the “activation” value was inactive: -16.9%.
Regarding `O=c1[nH]c2ccc(S(=O)(=O)Nc3cc(Cl)ccc3O)cc2o1`, the “activation” value is inactive: -8.26%.
The result for `CCOc1ccccc1CNC(=O)c1cc2oc3ccccc3c2n1CC` reads inactive: 4.63%; that for `Cc1nc2c(-c3ccc(F)cc3)c(C)nn2c(C)c1CCC(=O)NCc1cccc(Cl)c1`, inactive: -14.4%.
With `O=C(OCC1CCCO1)c1ccc2c(c1)N(Cc1cccc(F)c1)C(=O)c1ccccc1S2(=O)=O` (stereo unspecified), the “activation” value is inactive: -6.32%.
The figure for `CCC(=O)N1CCc2cc(Br)cc(S(=O)(=O)N3CCN(c4cccc(Cl)c4)CC3)c21` is inactive: 6.98%; for `Cc1cc2c(cc1S(=O)(=O)CCC(=O)N(C)Cc1ccccc1)OCC(=O)N2` it is inactive: -0.636%; for `CC1CCc2nc(NC(=O)Cc3ccc(Cl)cc3)sc2C1` (stereo unspecified) it is inactive: -12%.
The result for `CCOc1cccc(C2c3[nH]c4ccccc4c3CCN2C(=O)Cc2cccc(OCC)c2OCC)c1` (stereo unspecified) reads inactive: 3.55%; that for `CC1=C(C(=O)OC2CCCC2)C(c2ccc(Cl)cc2)CC(=O)N1` (stereo unspecified), inactive: -4.89%; that for `COc1ccc(C2=NS(=O)(=O)N(C)C(C(=O)NC(C)c3ccccc3)=C2)cc1OC` (stereo unspecified), inactive: -3.91%.
The figure for `O=C(CSc1nc(-c2ccccc2)no1)N1CCN(c2ccc(F)cc2)CC1` is inactive: -14.5%.
Take `Cc1cc(C)cc(NC(=O)CN(c2cccc(C)c2C)S(=O)(=O)c2ccccc2)c1`: the “activation” value was inactive: -5.04%.
Turning to `COc1ccc2c(CNCCc3ccccc3OC)c(C(=O)O)n(Cc3ccc(F)cc3Cl)c2c1`, the “activation” value is inactive: -10.8%.
Take `CSc1cccc(NC(=O)N2CCN(S(=O)(=O)c3ccc4c(ccn4C)c3)CC2)c1`: the “activation” value was inactive: -17%.
The result for `Cc1cccc(NC(=O)C2CCN(S(=O)(=O)c3c(C)noc3/C=C/c3ccco3)CC2)c1C` reads inactive: -20.9%; that for `COc1cccc(N2C(=O)CSC23C(=O)N(Cc2ccccc2F)c2ccccc23)c1` (stereo unspecified), inactive: -34.5%.
The figure for `CCc1ccccc1NC(=O)Cn1c(=O)oc2ccccc21` is inactive: -11%.
The figure for `CCCN(C(=O)Cn1nc(Cc2cccnc2)c2ccccc2c1=O)c1ccc(C(C)C)cc1` is inactive: -13%.
For `CCN(CC)C(=O)Nc1ccc(OCC(O)CNC(C)(C)C)c(C(C)=O)c1` (stereo unspecified), the “activation” value was inactive: -6.45%.
The result for `COc1ccc(C(=O)NCC(c2cccs2)S(=O)(=O)c2cccs2)cc1` (stereo unspecified) reads inactive: 5.64%.
The figure for `Cc1ccc(NC(=O)[C@H](Cc2ccccc2)N2Cc3ccccc3C2=O)cc1F` is inactive: -8.47%.
The figure for `CCOc1ccc(C2CC(=O)c3c([nH]c(C(=O)OC4CCCCCC4)c3C)C2)cc1` (stereo unspecified) is inactive: -28.3%.
In the case of `CC1=C(C(=O)OC2CCCCCC2)C(c2c(Cl)cccc2Cl)CC(=O)N1` (stereo unspecified), the “activation” value was inactive: -11.5%.
The figure for `CCCn1c2ccc(C)cc2c2nnc(SCCN3CCCCC3)nc21` is inactive: -11.7%.
The result for `COc1ccc(CCNC(=O)c2cc(-c3ccc(C)c(C)c3)nc3ccccc23)cc1OC` reads inactive: 7.88%; that for `O=C(CN1C(=O)CC(c2ccco2)Sc2ccccc21)Nc1ccc(OC(F)(F)F)cc1` (stereo unspecified), inactive: -7.97%.
With `Cc1ccc(S(=O)(=O)Nc2nc3n(n2)C(c2ccc(Cl)cc2)C=C(c2ccccc2)N3)cc1` (stereo unspecified), the “activation” value is inactive: -9.4%.
The figure for `Cc1ccc(CNc2nc3nc(C)c(Cl)c(C)n3n2)cc1` is inactive: -24.9%.
Consider `COc1ccc(-c2nc(CS(=O)CC(=O)NCc3ccccc3Cl)c(C)o2)cc1OC` (stereo unspecified), for which the “activation” value was inactive: -16.4%.
The figure for `O=C(c1ccco1)N1CCNCC1` is inactive: -10.7%.
The result for `Cn1c(C(=O)Nc2cccc(Cl)c2)cc2c(=O)n(C)c3ccccc3c21` reads inactive: -1.38%; that for `O=S(=O)(c1ccc(Br)cc1)N1CCn2cccc2C1c1ccc(Br)cc1` (stereo unspecified), inactive: -6.85%.
The result for `Cc1nn(C)c2c1c(C(F)(F)F)cc(=O)n2C(C)C(=O)NCc1ccccc1` (stereo unspecified) reads inactive: -19.9%; that for `CCOCCc1nn2c(=O)cc(COC(=O)c3ccc4c(c3)OCO4)nc2s1`, inactive: -30.2%; that for `O=C(NCc1ccccc1)c1ccc2c(c1)sc1nc(-c3ccc(F)cc3)cn12`, inactive: -19.6%.
With `CCc1ccccc1NC(=O)CSc1nc2ccccc2nc1Cc1cccc(OC)c1`, the “activation” value was inactive: -11.5%.
In the case of `CC(C)c1nn2c(=O)cc(COC(=O)COc3ccccc3F)nc2s1`, the “activation” value is inactive: -19.3%.
The figure for `Cc1ccc(C)c(N2CCN(CCCNC(=O)c3ccc4nc(C(C)C)oc4c3)CC2)c1` is inactive: -11.6%; for `COc1cccc(-c2cn3c(n2)sc2cc(C(=O)NCCc4ccccc4)ccc23)c1` it is inactive: -12.5%; for `Cc1ccc(-c2cn3c(n2)sc2cc(C(=O)NC4CCCCCC4)ccc23)c(C)c1` it is inactive: -6.72%.
In the case of `Cc1ccc(Cl)cc1N1CCN(C(=O)C2CCN(S(=O)(=O)c3c(C)noc3/C=C/c3ccccc3F)CC2)CC1`, the “activation” value was inactive: -11.2%.
The figure for `Cc1oc2c(c(C)cc3oc(=O)c(CC(=O)NCCc4ccc(Cl)cc4)c(C)c32)c1C` is inactive: -29.8%; for `Cc1cccc(NC(c2nnc(-c3ccccc3)o2)c2ccc(F)cc2Cl)c1C` (stereo unspecified) it is inactive: -5.39%.
The figure for `CCn1c(=O)c2c(nc(C=Cc3ccc(OC)c(OC)c3)n2C)n(CC)c1=O` is inactive: -9.41%; for `O=C(O)CCSc1nnc(-c2ccc(Cl)cc2Cl)o1` it is inactive: 6.76%; for `CC1(C)O[C@H]2[C@@H](O1)[C@@H](C(=O)Nc1cc(F)ccc1F)O[C@@H]1OC(C)(C)O[C@@H]12` it is inactive: 5.36%.
Take `CCCCC1C(=O)N(c2ccccc2)N(c2ccc(O)cc2)C1=O` (stereo unspecified): the “activation” value was inactive: -12.6%.
On to `Cc1cc(-c2ccc(C)c(S(=O)(=O)N(C(C)C)C3CCCCC3)c2)on1`, for which the “activation” value was inactive: -6.71%.
On to `CCOC(=O)c1ccc(CN(Cc2ccc(Cl)cc2Cl)S(=O)(=O)c2cccc(Cl)c2)cc1`, for which the “activation” value is inactive: -3.8%.
The result for `O=C(CCBr)N1CCN(C(=O)CCBr)CC1` reads inactive: -14.6%; that for `COc1ccc(-c2nc3n(n2)C(c2cccc(C)c2)C(C(N)=O)=C(C)N3)cc1OC` (stereo unspecified), inactive: -14.5%; that for `CC(=O)c1ccc(NC(=O)c2nn(C)c3c2CS(=O)(=O)c2ccccc2-3)cc1`, inactive: -13.9%.
The figure for `COc1cc2c(cc1OC)C(C(C(=O)N(CCc1ccc(OC)c(OC)c1OC)CCc1ccc(OC)c(OC)c1OC)c1ccccc1)=NCC2` (stereo unspecified) is inactive: -19%; for `Cc1cccc(-c2cc(C(=O)O)c3c(-c4ccc(F)cc4)[nH]nc3n2)c1` it is inactive: -8%; for `Cc1ccc2nc(N(Cc3cccnc3)C(=O)CCc3ccccc3)sc2c1` it is inactive: 5.24%.
With `Cc1cccc(NC(=O)c2ccc(F)c(S(=O)(=O)N3CCN(c4ccc(F)cc4)CC3)c2)c1`, the “activation” value was inactive: -6.17%.
The result for `CCOC(=O)C1=C(CN2CCCCC2)NC(=O)NC1c1ccc(OC)cc1` (stereo unspecified) reads inactive: -16.4%.
The figure for `CCOc1ccccc1NC(=O)c1cn(C2CCCCC2)c(=O)c2c1c1ccccc1n2C` is inactive: -17%; for `COc1ccc(CCNC(=O)CCn2c(=O)c3cccn3c3ccc(F)cc32)cc1OC` it is inactive: -9.94%.
Consider `Cc1ccc(-c2cn3c(n2)sc2cc(C(=O)NC4CCCCC4)ccc23)cc1`, for which the “activation” value was inactive: -5.62%.
Regarding `O=C(NC1CC(=O)N(c2ccc(F)cc2)C1)C1CCCCC1` (stereo unspecified), the “activation” value is inactive: -4.55%.
The result for `CCOc1cc(/C=C(\C#N)C(=O)Nc2ccccc2C)ccc1OCc1cc(=O)n2nc(CC)sc2n1` reads inactive: 3.53%; that for `CCN(CC)C(=O)Cn1c(=O)n(CCCCCC(=O)NCc2ccccc2)c(=O)c2sccc21`, inactive: -10.6%.
Regarding `COc1ccccc1C(=O)Nc1ccccc1SCc1cc(=O)c2ccccc2[nH]1`, the “activation” value is inactive: -12.1%.
The result for `c1cc(CN2CCCCC2)cc(OCCCNc2nc3ccccc3s2)c1` reads inactive: -13.9%; that for `O=C(c1ccc2c(c1)N(Cc1ccccc1F)C(=O)c1ccccc1S2=O)N1CCCCC1` (stereo unspecified), inactive: -6.47%.
The result for `COc1ccc(-c2nc(C)c(CCNC(=O)c3cc(OC)c(OC)c(OC)c3)s2)cc1OC` reads inactive: -18.1%; that for `O=C(NCc1ccccc1)c1cc2ccccc2o1`, inactive: -20%.
The result for `COc1ccc(OC)c2sc(N(Cc3cccnc3)C(=O)c3ccc(C(C)=O)cc3)nc12` reads inactive: -4.87%; that for `Cc1nnc(SCC(=O)NCc2ccc(N(C)C)cc2)c2nn(-c3ccccc3)c(C)c12`, inactive: -8.7%; that for `Cc1ccc(NC(=O)C2CCN(c3nnc(-n4cccc4)s3)CC2)cc1Cl`, inactive: -15.2%.
